Results: PubChem BioAssay AID1508642 (National Center for Advancing Translational Sciences (NCATS), 2021)
The whole screen tested about 43,000 compounds, of which about 200 (0.47%) were called active. Not shown: some 12% with an inconclusive outcome. Calls follow the shape of the dose curve; as a rule, active = well fitted cell-killing curve with a large enough effect; inconclusive = small, poorly fitted or top-dose-only effect, or effect the other way; inactive = flat fitted curve, though single readings scatter. The list shows a part of the results.

Assay: Cell viability qHTS assay in S16 Pmp22-F2sN cells; also: nearly all actives have a fitted effect of over 65% in size
Conditions: S16 Pmp22-F2sN Schwann cells viability, CellTiter-Glo, 24 h; series mostly up to 57.5 µM; activity change, negative = cytotoxicity: at the top concentration
In short: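 Used to flag compounds lowering reporter output through toxicity, this quantitative HTS measures ATP-based CellTiter-Glo luminescence in S16 Pmp22-F2sN Schwann cells after 24 h compound exposure at 37C.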
% is scaled to controls: 0 for no effect and ±100 for the full control effect.

| SMILES | activity change, negative = cytotoxicity |
| --- | --- |
| CCOC(=O)c1c(NC(=O)CSc2cn(CCNC(=O)c3cccc(C(F)(F)F)c3)c3ccccc23)sc2c1CCC2 | inactive: 0.629% |
| Cc1ccc2oc(C(=O)N(Cc3ccc(N(C)C)cc3)CC3CCCO3)c(C)c2c1 (configuration not stated) | inactive: -20.2% |
| CCc1nnc2c(N3CCN(c4cccc(C(F)(F)F)c4)CC3)nc3ccccc3n12 | inactive: -16.2% |
| COc1ccc(CNC(=O)Cn2c(=O)c3cccn3c3ccccc32)cc1 | inactive: 0.054% |
| CN1CCN(CCCNC(=O)c2cnn(-c3ccc(F)cc3)c2-n2cccc2)CC1 | inactive: 15.3% |
| CNc1ccc(-c2nc(-c3ccccc3C)no2)cc1[N+](=O)[O-] | inactive: 15.3% |
| c1ccc(-c2cc3ncc4c(n3n2)-c2ccccc2OC4)cc1 | inactive: -1.86% |
| O=C(Nc1c(C(=O)N2CCN(c3ccccc3F)CC2)oc2ccccc12)c1ccco1 | inactive: -9.21% |
| COc1cccc(CNc2ncnc3onc(C)c23)c1 | inactive: -13% |
| O=C(Cn1c(=O)n(Cc2ccco2)c(=O)c2oc3ccccc3c21)Nc1ccc(F)c(Cl)c1 | inactive: -3.54% |
| COc1ccc(N(CC(=O)N2CCc3ccccc3C2)S(=O)(=O)c2ccc(C)cc2)cc1Cl | inactive: 7.5% |
| CCCc1ccc(S(=O)(=O)N2CCC(c3nnnn3-c3ccc(OC)cc3)CC2)cc1 | inactive: -4.7% |
| Cc1oc2cc3oc(=O)c(CC(=O)N4CCCCC4)c(C)c3cc2c1C | inactive: 5.4% |
| CCOC(=O)c1ccc(NC(=O)c2cn(-c3ccccc3)nc2-c2ccc(C)cc2)cc1 | inactive: 0.0191% |
| N#CC1=C2SCN(C3CCCCC3)CN2C(=O)CC1c1ccc(Br)cc1 (configuration not stated) | inactive: 28.2% |
| CCOc1cc(C#N)c(NC(=O)c2ccc(OC)c(S(=O)(=O)N3CCN(c4ccccc4)CC3)c2)cc1OCC | inactive: 0.39% |
| CCOc1ccc(-c2cc(NC(=O)c3cccc(Cl)c3)c(C(=O)OC)s2)cc1 | inactive: -9.51% |
| CNC(=O)C(=O)NCC(c1ccc2c(c1)OCO2)N1CCOCC1 (configuration not stated) | inactive: -17.3% |
| COc1ccc(CNC(=O)C2=C(C)C(=O)OC23CCCCC3)cc1OC | inactive: 21.7% |
| O=C(c1ccc(F)cc1F)N1CCC(c2nc(-c3ccc(S(=O)(=O)N4CCCC4)cc3)no2)CC1 | inactive: 15.8% |
| CC1=C(C(=O)Nc2ccccc2)C(c2ccc(C)cc2)n2nc(SCc3ccccc3C)nc2N1 (configuration not stated) | inactive: 3.66% |
| CCCOc1ccc(C(=O)Nc2nonc2-c2ccc(OCC)cc2)cc1 | inactive: 10.8% |
| Cc1ccc(OCCCCn2cnc3ccccc32)cc1 | inactive: -26.4% |
| COc1ccc(NC(=O)c2nnn(CC(=O)Nc3c(C)cc(C)cc3C)c2N)cc1OC | inactive: -0.0729% |
| Cc1ccc(C)c(CN2C(=O)c3ccccc3S(=O)(=O)c3ccc(C(=O)Nc4cc(F)ccc4F)cc32)c1 | inactive: 7.05% |

| SMILES | activity change, negative = cytotoxicity |
| --- | --- |
| COc1ccc(CNC(=O)CN(c2ccc(C)cc2)S(=O)(=O)c2c(C)noc2C)cc1 | inactive: 9.09% |
| COc1ccc(CNC(=O)C(CCSC)NS(=O)(=O)c2ccc3c(c2)oc(=O)n3C)cc1 (configuration not stated) | inactive: 3.36% |
| Fc1ccc(Nc2nc(SCc3cccc(Cl)c3)nc3ccccc23)cc1 | inactive: -7.28% |
| COc1cc(Cl)c(C)cc1NC(=O)CCc1c(C)nc2c3cccnc3nn2c1C | inactive: -0.0472% |
| CS(=O)(=O)c1ccccc1-c1nnc(NC(=O)c2ccc3c(c2)OCCO3)o1 | inactive: -9.1% |
| COc1ccc(CNC(=O)CSc2n[nH]c(-c3ccc(F)cc3)n2)cc1 | inactive: -8.39% |
| COC(=O)c1ccccc1NC(=O)c1cnn(-c2ccc(F)cc2)c1-n1cccc1 | inactive: -6.32% |
| CCOc1ccc(-n2nc(CO)c(C(=O)NCc3ccccn3)n2)cc1 | inactive: -9.35% |
| CCCN(CCC)CCNC(=O)CN1C(=O)COc2ccc(S(=O)(=O)N3CCOCC3)cc21 | inactive: -11.1% |
| CCC(CC)C(=O)Nc1nnc(S(=O)(=O)N2CCc3ccccc32)s1 | inactive: 3.6% |
| Cc1cccc(OCC(=O)NCCc2nc3ccccc3[nH]2)c1C | inactive: 11.4% |
| O=C(NCc1ccccc1Cl)C1CCN(C(=O)N2CCOc3ccccc32)CC1 | inactive: -5.02% |
| COC(=O)CSc1nc2sc3c(c2c(=O)n1-c1ccc(C)cc1)CC(C(C)C)OC3 (configuration not stated) | inactive: 0.381% |
| CCN(CC)S(=O)(=O)c1ccc2c(c1)N(CC(=O)Nc1ccc(OC)cc1)C(=O)CS2 | inactive: -7.12% |
| Cc1ccccc1CNC(=O)c1oc2c(c1C)-c1nn(Cc3ccc(Cl)cc3)cc1CC2 | inactive: -15% |
| CCOc1ccc(Cl)cc1CNCCCSc1nnnn1C | inactive: 1.48% |
| CCOc1ccc(NC(=O)C2CCCN(c3cnccn3)C2)cc1 (configuration not stated) | inactive: 8.23% |
| COc1ccc(Br)cc1C(=O)Nc1ccc(-c2nc3ncccc3o2)cc1C | inactive: -0.194% |
| Cc1cccc(-n2c(N)cc(=O)nc2SCC(=O)Nc2ccc(F)cc2)c1C | inactive: -1.27% |
| CC(C)Cn1c(C2CC(=O)N(c3ccccc3Cl)C2)nc2ccccc21 (configuration not stated) | inactive: 20.3% |
| Cc1oc(-c2ccc(C(=O)NCCN(C)C)cc2)nc1CS(=O)(=O)c1ccccc1 | inactive: 2.61% |
| O=C(Cn1nc(-c2ccccc2)nc(Cc2ccccc2)c1=O)Nc1ccc(Cl)cc1 | inactive: 0.0039% |
| Cc1cccc(NC(=O)Cn2nnc(C(=O)NCc3ccco3)c2N)c1 | inactive: 3.3% |
| Cc1ccc(C(=O)NCC(=O)OCc2cc(=O)n3ccsc3n2)cc1 | inactive: 3.93% |
| CCc1ccc(NC(=O)CSc2ccc3nc(-c4ccc(OC)cc4)cn3n2)cc1 | inactive: -6.01% |

| SMILES | activity change, negative = cytotoxicity |
| --- | --- |
| CCC(=O)N1CCc2cc(Br)cc(S(=O)(=O)N3CCC(C(=O)Nc4ccccc4F)CC3)c21 | inactive: -5.75% |
| CCOC(=O)CCC(=O)Nc1nnc2n1CCS2 | inactive: 15.1% |
| CC(=O)N1CCc2cc(S(=O)(=O)NC(CC(C)C)C(=O)NCc3ccccc3Cl)ccc21 (configuration not stated) | inactive: -4.38% |
| Cc1ccc(C(=O)Nc2nnc(S(=O)(=O)N3CCCCCC3)s2)cc1 | inactive: -4.94% |
| COc1ccc(CNC(=O)CCc2c(C)c3cc4c(C)c(C)oc4cc3oc2=O)cc1 | inactive: -0.807% |
| O=C(Cn1ccn(-c2ccc(F)cc2)c(=O)c1=O)Nc1ccccc1C(F)(F)F | inactive: 2.56% |
| CCCCc1nn2c(=O)cc(COC(=O)c3ccccc3NC(=O)c3cccs3)nc2s1 | inactive: -3.95% |
| Cc1cc(C)cc(C(=O)n2nc(C)c(S(=O)(=O)N3CCCCCC3)c2C)c1 | inactive: -3.75% |
| O=C(Nc1ccc(Cl)cc1Cl)c1cc(S(=O)(=O)N2CCCCCC2)ccc1F | inactive: 4.1% |
| O=C1CC(c2cc(F)cc(F)c2)c2cc3c(cc2N1)OCO3 (configuration not stated) | inactive: 12.9% |
| Cc1c(C(=O)N2CCN(c3ccc(F)cc3)CC2)sc2nc3n(c(=O)c12)CCC3 | inactive: -10.4% |
| CC1=C(C(=O)Nc2ccc(Cl)cc2)C(c2cccs2)n2nc(SCc3cccc(C)c3)nc2N1 (configuration not stated) | inactive: 2.82% |
| Cc1ccc(NC(=O)c2cnc(SCC(=O)N3CCCc4ccccc43)n(C)c2=O)cc1 | inactive: -18.8% |
| CC(C)(C)OC(=O)N1CCC(c2c(C(=O)N3CCN(c4ccccc4F)CC3)cnn2-c2ccccc2Cl)CC1 | inactive: 11.1% |
| COc1cc(Cl)c(NC(=O)CCc2nc3cccnc3n2-c2ccccc2)c(OC)c1 | inactive: 17% |
| CC(=O)Nc1c(C)nn(-c2ccccc2)c1N1CCC(C(=O)NCc2cccc(Cl)c2)CC1 | inactive: -2.34% |
| CCOc1ccc(NC(=O)CCNS(=O)(=O)c2ccc3c(c2)CCCC(=O)N3)cc1 | inactive: 14.4% |
| CC1CCc2onc(C(=O)N3CCN(c4ccc(F)cc4)CC3)c2C1 (configuration not stated) | inactive: -6% |
| CCCCCN1C(C(=O)c2ccccc2)=C(NC(=O)c2ccc(C)cc2)c2ccccc2S1(=O)=O | inactive: -21.5% |
| CCOc1ccc(NC(=O)c2c(NCc3cccnc3)sc3c2CCC(C)C3)cc1 (configuration not stated) | inactive: -2.6% |
| CCN(CC)C(=O)Cn1c(=O)n(-c2ccc(C)c(C)c2)c(=O)c2c(C)c(C(=O)N(CC)CC)sc21 | inactive: -18.6% |
| CC(=O)c1sc(NC(=O)c2c(-c3ccccc3)c(-c3ccccc3)nn(C)c2=O)nc1C | inactive: -4.85% |
| CCN1CCN(C(=O)c2cnn(-c3ccc(F)cc3F)c2C2CCN(C(=O)OC(C)(C)C)CC2)CC1 | inactive: 8.71% |
| COc1ccc(OC)c(NC(=O)c2cnc(Nc3ccc(C)c(Cl)c3)c3ccccc23)c1 | inactive: 19.6% |
| Cc1ccc(-n2ncc3c(N(C)C)ncnc32)cc1Cl | inactive: 1.31% |

| SMILES | activity change, negative = cytotoxicity |
| --- | --- |
| CCC(Sc1nc(-c2ccccc2)[nH]c1S(=O)(=O)c1ccc(C)cc1)C(=O)O (configuration not stated) | inactive: 3.18% |
| O=C(NCCCN1CCN(c2ccc(F)cc2)CC1)c1cc2c(Cl)nc3ccccc3c2s1 | inactive: 16.4% |
| CC(C)c1ccc(-c2noc(SCC(=O)N3CCCCC3C)n2)cc1 (configuration not stated) | inactive: -6.8% |
| Cc1cc(C)cc(OC(=O)c2cc(-c3ccc(Cl)cc3)on2)c1 | inactive: 3.09% |
| Cc1cccc(-c2nc(CCNC(=O)c3ccc(Br)o3)cs2)c1 | inactive: -7.54% |
| Cc1ccc(-c2nnc(Nc3ccc(C(N)=O)cc3)c3ccccc23)cc1S(N)(=O)=O | inactive: -2.59% |
| COc1ccc(NC(=O)Cn2c(=O)c3cccn3c3ccccc32)cc1Cl | inactive: 11.7% |
| COc1cccc2sc(NC(=O)c3ccc(S(=O)(=O)N4CCC(C)CC4)cc3)nc12 | inactive: -20.4% |
| COc1ccc(N2CCN(C(=O)C3CCN(S(=O)(=O)c4cccc5nonc45)CC3)CC2)cc1 | inactive: -2.67% |
| CCN1CCN(CCCNC(=O)CS(=O)(=O)Cc2nc(-c3ccccc3C)oc2C)CC1 | inactive: 25.9% |
| Cc1nnc(N2CCCC(C(=O)NCCN(C)C)C2)c2nn(-c3ccccc3)c(C)c12 (configuration not stated) | inactive: -10.2% |
| CCOc1ccc(CNCc2c(C(=O)O)c(C)n(Cc3ccc(C)cc3)c2C)cc1 | inactive: -8.37% |
| CCOc1ccccc1OCCCCn1c(-c2ccc(Cl)cc2)nc2ccccc2c1=O | inactive: -6.22% |
| COc1ccc(C)cc1NC(=O)Nc1cc(C(=O)NCc2ccc(C)cc2)ccc1N1CCCC1 | inactive: -22.8% |
| COc1ccc(-c2nc3sc(CCNC(=O)Cc4ccc(F)cc4)c(C)n3n2)cc1 | inactive: -7.2% |
| Cc1sc(-c2cc3ccccc3oc2=O)nc1-c1ccc(Cl)c(Cl)c1 | inactive: -1.48% |
| COc1ccc(-c2c(C)nn3c(-c4ccccc4)cc(C)nc23)cc1OC | inactive: -21.9% |
| O=C(Cn1ncc2c3ccccc3n(Cc3cccc(Cl)c3)c2c1=O)NCCCc1ccccc1 | inactive: 1.57% |
| Cc1cccc(C)c1NC(=O)Cn1cc(C(=O)c2ccco2)c2ccccc21 | inactive: -4.93% |
| Cc1cc(C)n(C(C)CC(=O)Nc2cccc(C#N)c2)n1 (configuration not stated) | inactive: 0.593% |
| CCc1nc(Nc2ccc(F)c(Cl)c2)c2c3c(sc2n1)CCCC3 | inactive: 2.26% |
| CCOc1ccc(-c2nn(-c3ccc(F)cc3)c3c2cnc2ccc(F)cc23)cc1 | inactive: 12.6% |
